These results are taken from the antibiotic and cytotoxicity screens of Wong et al. (2023).

The other results are listed elsewhere or left out.

The subject of one test is HSkMC. Nature of the test: cytotoxicity call (relative viability < 0.9). The conditions noted are these: 10 µM.
The next test relates to HepG2. Nature of the test: cytotoxicity call (relative viability < 0.9). The conditions noted are these: 10 µM.
Another test deals with S. aureus RN4220. Nature of the test: growth inhibition call (relative growth <= 0.2). The conditions noted are these: 50 µM.

`Cc1noc(C)c1NC(=O)Nc1ccc2c(c1)C(=O)N([C@@H](C)CO)C[C@H](C)[C@@H](CN(C)C(=O)Nc1ccc(C(F)(F)F)cc1)OCCCC[C@@H](C)O2`: the cytotoxicity call in the test with HSkMC and with HepG2 was “inactive” in each case. Also, the growth inhibition call in the test with S. aureus RN4220 was “inactive”.
Consider `CC(C)NC(=O)Nc1ccc2c(c1)C(=O)N([C@@H](C)CO)C[C@@H](C)[C@H](CN(C)Cc1ccc3c(c1)OCO3)O2`, for which the cytotoxicity call in the test with HSkMC and in the test on HepG2 was “inactive” each time. Also, the growth inhibition call in the test with S. aureus RN4220 was “inactive”.
On to `Cc1noc(C)c1NC(=O)N(C)C[C@@H]1OCCCC[C@@H](C)Oc2ccc(NC(=O)Cc3ccccc3)cc2C(=O)N([C@H](C)CO)C[C@@H]1C`, for which the cytotoxicity call in the test with HSkMC and in the test with HepG2 was “inactive” each time. Also, in the test on S. aureus RN4220, the growth inhibition call is “inactive”.
Regarding `Cc1cc(C(=O)Nc2ccc3c(c2)C(=O)N(C)[C@@H]2CC[C@H](CC(=O)NCC(F)(F)F)O[C@@H]2CO3)no1`, the cytotoxicity call in the test on HSkMC and in the test with HepG2 was “inactive” throughout. The growth inhibition call in the test on S. aureus RN4220 is “inactive”.
For the compound `O=C1NC(=S)N/C1=C\c1ccco1`, the cytotoxicity call in the test with HSkMC and in the test with HepG2 was “inactive” throughout. Besides, the growth inhibition call in the test on S. aureus RN4220 was “inactive”.
Take `CO[C@@H]1CN(C)C(=O)c2cc(NC(=O)C3CC3)ccc2OC[C@H](C)N(C(=O)Cc2ccccn2)C[C@H]1C`: the cytotoxicity call in the test with HSkMC and in the test with HepG2 was “inactive” each time. In the test with S. aureus RN4220, the growth inhibition call is “inactive”.
With `C[C@H](CO)N1C[C@H](C)[C@H](CN(C)Cc2ccc(Cl)c(Cl)c2)OCCCC[C@H](C)Oc2ccc(NC(=O)Nc3ccc(C(F)(F)F)cc3)cc2C1=O`, the cytotoxicity call with HSkMC is “inactive”. In addition, the cytotoxicity call in the test on HepG2 is “active”. For the same compound, the growth inhibition call in the test on S. aureus RN4220 is “inactive”.
Regarding `C[C@@H]1CN([C@H](C)CO)C(=O)c2cccc(NC(=O)c3ccncc3)c2O[C@@H]1CN(C)Cc1ccc(Oc2ccccc2)cc1`, the cytotoxicity call in the test with HSkMC and in the test with HepG2 was “inactive” throughout. Further, in the test with S. aureus RN4220, the growth inhibition call was “inactive”.
For `C[C@H]1CN([C@@H](C)CO)C(=O)c2cccc(NS(=O)(=O)c3cn(C)cn3)c2O[C@@H]1CN(C)C(=O)Nc1ccc2c(c1)OCO2`, the cytotoxicity call with HSkMC and with HepG2 was “inactive” throughout. The growth inhibition call in the test on S. aureus RN4220 was “inactive”.
As for `COC(=O)C[C@H]1O[C@]2(C(=O)N(Cc3ccccc3)c3ccc(I)cc32)[C@@H](C)[C@@H]1[Si](C)(C)c1ccc(OC)cc1`, the cytotoxicity call in the test on HSkMC and with HepG2 was “inactive” in each case. For the same compound, the growth inhibition call in the test with S. aureus RN4220 is “inactive”.
As to `O=C(C[C@H]1CC[C@H]2NC[C@H](O)COC[C@@H]2O1)NCCN1CCCC1`, the cytotoxicity call with HSkMC and in the test with HepG2 was “inactive” in each case. Besides, in the test on S. aureus RN4220, the growth inhibition call is “inactive”.
In the case of `Cc1noc(C)c1NC(=O)Nc1ccc2c(c1)C(=O)N([C@H](C)CO)C[C@@H](C)[C@H](CN(C)C(=O)Nc1ccc(F)cc1)OCCCC[C@H](C)O2`, the cytotoxicity call in the test with HSkMC and in the test with HepG2 was “inactive” each time. Further, the growth inhibition call in the test on S. aureus RN4220 is “inactive”.
On to `COc1cccc(NC(=O)N(C)C[C@H]2Oc3cc(C#Cc4ccncc4)ccc3S(=O)(=O)N([C@@H](C)CO)C[C@@H]2C)c1`, for which the cytotoxicity call in the test on HSkMC and with HepG2 was “active” in each case. Further, the growth inhibition call with S. aureus RN4220 is “inactive”.
Regarding `O=C(O)c1ccc(Nc2cn[nH]c(=O)n2)cc1O`, the cytotoxicity call in the test with HSkMC and in the test on HepG2 was “inactive” each time. Also, the growth inhibition call with S. aureus RN4220 was “inactive”.
For `CN1CCN(C(=O)[C@@H]2[C@@H](C(=O)O)[C@H]3CC[C@H]2O3)CC1`, the cytotoxicity call with HSkMC and with HepG2 was “inactive” in each case. Also, the growth inhibition call in the test with S. aureus RN4220 was “inactive”.
Turning to `C[C@H](CO)N1C[C@H](C)[C@H](CN(C)S(C)(=O)=O)Oc2ccc(NS(=O)(=O)c3ccc(Cl)cc3)cc2C1=O`, the cytotoxicity call in the test with HSkMC and in the test on HepG2 was “inactive” in each case. Also, in the test on S. aureus RN4220, the growth inhibition call is “inactive”.
With `C[C@@H]1CN([C@@H](C)CO)C(=O)c2cc(NC(=O)Cc3cn(C)c4ccccc34)ccc2O[C@H]1CN(C)C(=O)Nc1ccc(C(F)(F)F)cc1`, the cytotoxicity call in the test on HSkMC and with HepG2 was “inactive” throughout. Also, the growth inhibition call with S. aureus RN4220 is “inactive”.
Consider `C[C@@H]1CN([C@@H](C)CO)C(=O)c2cc(NC(=O)Nc3ccc(F)cc3)ccc2O[C@@H](C)CCCCO[C@@H]1CN(C)Cc1ccc(C(=O)O)cc1`, for which the cytotoxicity call in the test on HSkMC and in the test with HepG2 was “inactive” throughout. Further, the growth inhibition call with S. aureus RN4220 was “inactive”.
`CC(C)CC#Cc1cnc2c(c1)C(=O)N([C@@H](C)CO)C[C@H](C)[C@@H](CN(C)C(=O)CCN1CCCCC1)O2`: the cytotoxicity call with HSkMC and in the test with HepG2 was “inactive” throughout. The growth inhibition call in the test with S. aureus RN4220 is “inactive”.
With `C[C@@H]1CN([C@@H](C)CO)C(=O)c2cc(C#CCN(C)C)cnc2O[C@H]1CN(C)C(=O)Nc1cccc(F)c1`, the cytotoxicity call in the test on HSkMC (human skeletal muscle cells) and in the test with HepG2 was “inactive” each time. Moreover, the growth inhibition call in the test on S. aureus RN4220 is “inactive”.
For the compound `C[C@@H]1CCCCO[C@H](CN(C)C(=O)Nc2ccccc2)[C@H](C)CN([C@H](C)CO)C(=O)c2cc(NS(=O)(=O)c3ccc(Cl)cc3)ccc2O1`, the cytotoxicity call with HSkMC and in the test on HepG2 was “inactive” each time. In the test with S. aureus RN4220, the growth inhibition call was “inactive”.
Take `C[C@@H]1CN([C@H](C)CO)S(=O)(=O)c2ccc(C#CC(C)(C)O)cc2O[C@@H]1CN(C)Cc1ccccc1`: the cytotoxicity call in the test with HSkMC and in the test on HepG2 was “inactive” throughout. For the same compound, the growth inhibition call in the test on S. aureus RN4220 is “inactive”.
Regarding `Oc1c(Cl)cc(Cl)cc1Sc1cc(Cl)cc(Cl)c1O`, the cytotoxicity call with HSkMC and with HepG2 was “active” each time. For the same compound, in the test on S. aureus RN4220, the growth inhibition call is “inactive”.
For `CCNC(=O)[C@@H]1N[C@@H]2c3ccc(-c4cccc(C(=O)N(C)C)c4)c(=O)n3C[C@@H]2[C@H]1CO`, the cytotoxicity call in the test with HSkMC and in the test on HepG2 was “inactive” in each case. In addition, the growth inhibition call in the test on S. aureus RN4220 is “inactive”.
With `C[C@@H]1CN([C@H](C)CO)C(=O)c2cc(NC(=O)CCC(F)(F)F)ccc2O[C@H]1CN(C)Cc1ccc(Oc2ccccc2)cc1`, the cytotoxicity call in the test with HSkMC and with HepG2 was “inactive” each time. Further, in the test with S. aureus RN4220, the growth inhibition call was “inactive”.
For the compound `C[C@H](CO)N1C[C@H](C)[C@H](CN(C)Cc2ccc3c(c2)OCO3)Oc2ccc(NC(=O)CCCN(C)C)cc2C1=O`, the cytotoxicity call in the test with HSkMC and in the test with HepG2 was “inactive” in each case. Also, the growth inhibition call in the test on S. aureus RN4220 is “inactive”.
`C[C@@H]1CN([C@@H](C)CO)C(=O)c2cccc(NS(=O)(=O)c3ccc(Cl)cc3)c2O[C@H]1CN(C)S(=O)(=O)c1cn(C)cn1`: the cytotoxicity call in the test with HSkMC and in the test with HepG2 was “inactive” throughout. In addition, the growth inhibition call in the test with S. aureus RN4220 was “inactive”.
